From the supplement of paper PMC10441789
Some of the results follow. Antibody binding of pooled human sera (four to six donors per pool; dilution not stated) to peptides of the Trypanosoma cruzi antigen TSSA on microarrays. Quantile-normalised fluorescence in arbitrary units, mean of duplicate arrays; higher = more binding. No active / inactive call. The uninfected pools are read here as the healthy donors of the same country. The strongest signals lie near the top of the scale (about 60,000).

What was measured:
Test in all cases: antibody binding signal (normalised fluorescence) (arbitrary fluorescence units); higher = stronger serum antibody binding to peptide
[1] = test system: pooled sera of chronic Chagas disease patients, Argentina
Procedure: (§1)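 Microarray of 15-residue peptides over residues 30-55 of Trypanosoma cruzi TSSAII, each with 1 to 10 substitutions at naturally variable positions, probed with one serum pool per country.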

[2] = test system: pooled sera of chronic Chagas disease patients, Bolivia
Procedure: as §1

[3] = test system: pooled sera of chronic Chagas disease patients, Brazil
Procedure: as §1

[4] = test system: pooled sera of chronic Chagas disease patients, Colombia
Procedure: as §1

[5] = test system: pooled sera of chronic Chagas disease patients, Mexico
Procedure: as §1

[6] = test system: pooled sera of chronic Chagas disease patients, USA
Procedure: as §1

[7] = test system: pooled sera of uninfected people, Argentina
Procedure: as §1

[8] = test system: pooled sera of uninfected people, Bolivia
Procedure: as §1

[9] = test system: pooled sera of uninfected people, Brazil
Procedure: as §1

[10] = test system: pooled sera of uninfected people, Colombia
Procedure: as §1

[11] = test system: pooled sera of uninfected people, Mexico
Procedure: as §1

[12] = test system: pooled sera of uninfected people, USA
Procedure: as §1

| Sequence | antibody binding signal [1] | antibody binding signal [2] | antibody binding signal [3] | antibody binding signal [4] | antibody binding signal [5] | antibody binding signal [6] | antibody binding signal [7] | antibody binding signal [8] | antibody binding signal [9] | antibody binding signal [10] | antibody binding signal [11] | antibody binding signal [12] |
| --- | --- | --- | --- | --- | --- | --- | --- | --- | --- | --- | --- | --- |
| EKKTAAGEAPSPSGA | 1260 | 258 | 686 | 675 | 489 | 5860 | 259 | 1140 | 133 | 1300 | 202 | 889 |
| PPSGTENKPAAGGAP | 54400 | 51900 | 52700 | 830 | 13100 | 21100 | 3900 | 3160 | 1060 | 1190 | 585 | 1370 |
| TENKAAAGETPSQSG | 28800 | 465 | 15300 | 228 | 255 | 2500 | 81.9 | 189 | 138 | 135 | 267 | 110 |
| GKEKKPAAGETPSQS | 17400 | 881 | 3810 | 8040 | 9340 | 7040 | 144 | 117 | 101 | 177 | 90.6 | 291 |
| SSTPPSGTENKTATG | 46300 | 47100 | 52100 | 391 | 3530 | 27800 | 2590 | 658 | 428 | 712 | 580 | 600 |
| KDKKPATGGAPSQPG | 414 | 1230 | 8950 | 460 | 338 | 678 | 243 | 518 | 96.1 | 94 | 97.3 | 89.3 |
| SGKDKKAAAGEAPSQ | 565 | 3070 | 2190 | 1500 | 809 | 7110 | 126 | 85.8 | 103 | 228 | 81.5 | 83.3 |
| GTDKKTAAGETPSPP | 227 | 257 | 466 | 1030 | 531 | 2890 | 159 | 311 | 162 | 649 | 218 | 462 |
| SGKENKAATGGTPSP | 3870 | 2270 | 17100 | 6320 | 2120 | 18800 | 8230 | 2080 | 177 | 336 | 367 | 230 |
| SGTDNKPATGGAPSP | 9030 | 20300 | 46000 | 4070 | 647 | 3380 | 288 | 1410 | 330 | 290 | 469 | 315 |
| TDNKPATGETPSQPG | 35900 | 30100 | 41300 | 326 | 188 | 27900 | 285 | 809 | 598 | 261 | 1730 | 196 |
| GTDKKAATGGAPSQP | 894 | 424 | 8030 | 2740 | 2560 | 911 | 367 | 416 | 131 | 560 | 215 | 138 |
| SGKDNKPAAGGAPSP | 987 | 363 | 7670 | 2180 | 1130 | 1630 | 406 | 449 | 130 | 846 | 199 | 135 |
| KPAAGEAPSPPGASS | 728 | 270 | 19600 | 231 | 197 | 10300 | 231 | 176 | 120 | 94 | 98.5 | 157 |
| KPAAGETPSQPGASS | 2450 | 3930 | 39700 | 195 | 290 | 2440 | 167 | 1650 | 242 | 387 | 190 | 167 |
| SSTPPSGTDNKTATG | 31300 | 41600 | 49100 | 1040 | 13400 | 21300 | 1040 | 674 | 1540 | 201 | 231 | 388 |
| ENKPAAGEAPSPPGA | 1270 | 1610 | 33600 | 318 | 237 | 16500 | 163 | 209 | 169 | 113 | 92.4 | 171 |
| GKENKPAAGGAPSPS | 1130 | 286 | 4450 | 3570 | 3080 | 6760 | 595 | 178 | 119 | 109 | 149 | 109 |
| KDKKTAAGGTPSPSG | 341 | 195 | 191 | 3090 | 202 | 1590 | 113 | 89.1 | 362 | 137 | 84.4 | 139 |
| GKEKKAAAGGTPSQP | 1610 | 213 | 275 | 2440 | 2320 | 2770 | 156 | 73.5 | 526 | 93.4 | 169 | 116 |
| TEKKPAAGEAPSQPG | 9780 | 21800 | 41600 | 380 | 351 | 15200 | 98.6 | 152 | 297 | 95.2 | 168 | 636 |
| KKAATGGAPSPSGAS | 485 | 173 | 294 | 756 | 420 | 575 | 330 | 148 | 112 | 248 | 87.1 | 248 |
| GKENKTATGETPSPS | 15800 | 3330 | 17700 | 20500 | 23100 | 22700 | 577 | 268 | 146 | 212 | 465 | 2510 |
| GTENKTAAGGAPSQP | 35100 | 1470 | 4900 | 4980 | 1840 | 1500 | 369 | 543 | 338 | 243 | 412 | 158 |
| SGKDNKPAAGETPSP | 746 | 666 | 17900 | 1290 | 853 | 3840 | 386 | 754 | 171 | 546 | 489 | 457 |

| Sequence | antibody binding signal [1] | antibody binding signal [2] | antibody binding signal [3] | antibody binding signal [4] | antibody binding signal [5] | antibody binding signal [6] | antibody binding signal [7] | antibody binding signal [8] | antibody binding signal [9] | antibody binding signal [10] | antibody binding signal [11] | antibody binding signal [12] |
| --- | --- | --- | --- | --- | --- | --- | --- | --- | --- | --- | --- | --- |
| DNKPATGETPSPPGA | 31700 | 22500 | 32200 | 249 | 208 | 23000 | 134 | 388 | 417 | 150 | 1440 | 416 |
| PPSGKEKKTAAGETP | 1310 | 1040 | 2200 | 1580 | 3400 | 2940 | 366 | 606 | 92.5 | 298 | 153 | 151 |
| GTDKKAAAGEAPSQS | 490 | 4080 | 10700 | 2660 | 606 | 11600 | 106 | 359 | 99.6 | 91.7 | 238 | 125 |
| GTDNKTAAGGAPSQP | 286 | 1140 | 20400 | 4010 | 494 | 305 | 274 | 683 | 1980 | 182 | 363 | 173 |
| DNKAATGEAPSQPGA | 30100 | 45800 | 45800 | 107 | 195 | 27600 | 260 | 150 | 224 | 177 | 222 | 132 |
| TPPSGTDKKAATGEA | 20500 | 12900 | 28000 | 4910 | 37000 | 2570 | 322 | 141 | 391 | 451 | 1700 | 137 |
| ENKTATGGTPSQPGA | 467 | 2430 | 1210 | 2040 | 451 | 1210 | 575 | 153 | 613 | 419 | 2070 | 212 |
| KEKKAAAGGAPSQSG | 155 | 186 | 178 | 1400 | 153 | 200 | 102 | 79.8 | 98 | 87.4 | 75 | 80.2 |
| PPSGTDKKTAAGGAP | 12100 | 6830 | 17100 | 10800 | 36400 | 1650 | 537 | 439 | 186 | 543 | 1190 | 380 |
| SGTENKAATGEAPSQ | 35400 | 46100 | 39500 | 187 | 231 | 29200 | 611 | 380 | 119 | 161 | 141 | 145 |
| PSGTENKPAAGGTPS | 54000 | 39200 | 47600 | 3610 | 4990 | 14200 | 2170 | 2870 | 1420 | 948 | 822 | 545 |
| SGKEKKTATGGAPSP | 3790 | 358 | 3540 | 2820 | 3190 | 4310 | 273 | 284 | 99.2 | 102 | 115 | 111 |
| KEKKTAAGETPSPPG | 207 | 227 | 188 | 234 | 206 | 1360 | 119 | 108 | 109 | 337 | 78.5 | 218 |
| TENKAATGGAPSPPG | 34300 | 661 | 3400 | 577 | 673 | 2440 | 302 | 165 | 292 | 174 | 155 | 181 |
| GTDKKTAAGGAPSPS | 176 | 357 | 204 | 6320 | 748 | 648 | 200 | 214 | 143 | 184 | 189 | 118 |
| KEKKTAAGEAPSPPG | 150 | 208 | 238 | 330 | 219 | 3470 | 134 | 105 | 89.9 | 538 | 85.6 | 112 |
| GKEKKTAAGEAPSPP | 2020 | 524 | 461 | 2320 | 2420 | 5360 | 136 | 104 | 83.8 | 414 | 97.3 | 125 |
| DKKTAAGGAPSQSGA | 401 | 334 | 215 | 5120 | 582 | 415 | 176 | 141 | 167 | 171 | 329 | 124 |
| EKKTATGEAPSQPGA | 13900 | 17600 | 39900 | 406 | 1130 | 18800 | 295 | 824 | 159 | 126 | 341 | 826 |
| TDNKPATGGTPSQSG | 786 | 542 | 3470 | 568 | 412 | 321 | 276 | 648 | 453 | 305 | 548 | 200 |
| PSGTDNKTATGGTPS | 13300 | 9680 | 39300 | 923 | 784 | 1310 | 260 | 755 | 1950 | 340 | 337 | 324 |
| TENKTATGGAPSPSG | 24300 | 926 | 757 | 427 | 444 | 619 | 314 | 204 | 456 | 171 | 549 | 229 |
| KENKTAAGEAPSQSG | 276 | 5030 | 7890 | 1260 | 233 | 6210 | 180 | 136 | 129 | 128 | 169 | 184 |
| GTDKKAAAGETPSQS | 254 | 299 | 2480 | 2430 | 378 | 1230 | 106 | 390 | 115 | 584 | 287 | 107 |
| GKENKAATGGAPSQP | 2550 | 691 | 17800 | 5050 | 4750 | 14200 | 326 | 180 | 105 | 119 | 125 | 123 |
